Several values for one entry are separate records, joined by “and”; a condition that tells them apart may be missing. Equal values may be shown once. Screen size: about 420,000 compounds; about 50,000 (12%) were called active. Inconclusive means that the source gave no clear call. Such entries were picked first, then a sample of the others. Calls follow the shape of the dose curve; as a rule, active = well fitted inhibition curve with a large enough effect; inconclusive = small, poorly fitted or top-dose-only effect; inactive = flat fitted curve, though single readings scatter. No potency is given beside an inconclusive call; the fits are too rough.
Assay: qHTS for Inhibitors of human tyrosyl-DNA phosphodiesterase 1 (TDP1): qHTS in cells in presence of CPT; also: nearly all actives have a fitted effect of over 55% in size
Details: chicken DT40 Tdp1-/-;hTDP1 cells + 20 nM CPT, ATP luminescence, 48 h; activity change, negative = growth inhibition: at 46.2 µM (top of the series) unless noted
Procedure, shortened: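 Cell growth measured by CellTiter-Glo luminescence after a minimum 48 h, 37 C compound exposure with 20 nM CPT in Tdp1-knockout DT40 cells stably expressing hTDP1, seeded 400/well; qHTS titration format.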
% is scaled to controls: 0 for no effect and ±100 for the full control effect; potency is read from the fitted curve at half-maximal effect; tags tell the direction and shape of the fitted curve.

SMILES | Potency | activity change, negative = growth inhibition
CCCCOc1ccc(C2=NC(c3ccncc3)=Nc3ccc(Br)cc3N2)cc1 | inconclusive [inhibitor, single point] | 
C=CCn1c(O)c(C2=c3ccccc3=NC2=O)s/c1=N/c1nccs1 | inconclusive [inhibitor, single point] | 
COc1cc(NC(c2ccccc2)c2ccccc2)cc(OC)c1OC |  | inactive: 8.78%
Cc1ccc(CN2CCC[C@]3(N[C@H](c4ccc(C(F)(F)F)cc4)[C@@H]4C(=O)N(Cc5ccccc5)C(=O)[C@@H]43)C2=O)cc1 | active: 20.6 µM | 
CCOC(=O)[C@]12CCCC=C1N(Cc1ccc3c(c1)OCO3)C(=O)[C@H](CC(=O)NCCC(C)C)C2 | inconclusive [inhibitor, single point] | 
CCCC(=O)Nc1ccc(Cl)c(NC(=O)c2cccnc2Cl)c1 |  | inactive: 5.4%
CC1(C)Cc2cccc(OCC(=O)Nc3cc(C(F)(F)F)ccc3N3CCOCC3)c2O1 | inconclusive [inhibitor, single point] | 
COc1ccc(-c2nc(CS(=O)CC(=O)NCc3ccc(F)cc3)c(C)o2)cc1OC (configuration not stated) | inconclusive [inhibitor, single point] | 
CCCC(=O)N(CC(=O)Nc1sc(C)c(C)c1C(N)=O)Cc1ccccc1 | active: 11.6 µM | 
Cc1ccc(-c2nc3ccc(Cl)cn3c2Nc2ccc3c(c2)OCCO3)o1 | active: 20.6 µM | 
O=[N+]([O-])c1ccc(O)c(N=Cc2sc3ccccc3c2O)c1 | active: 20.6 µM | 
CCOCCCNC(=O)/C(C#N)=C/c1ccc([N+](=O)[O-])o1 | active: 1.3 µM | 
CCCc1cc(N2CCN(c3ccccn3)CC2)n2nc(C)c(-c3ccccc3)c2n1 | inconclusive [inhibitor, single point] | 
Cc1cc(C(=O)COc2cc(F)ccc2[N+](=O)[O-])c(C)n1CC1CCCO1 (configuration not stated) | inconclusive [inhibitor, single point] | 
Cc1ccc(Nc2nnns2)cc1C |  | inactive: -16.7%
C=CCOc1ccc(C(=O)c2ccccc2)c(OCC(=O)NC2(C#N)CCCC2)c1 | inconclusive [inhibitor, single point] | 
COc1cc(C2NC(=O)NC(c3ccccc3)=C2C(C)=O)c(Cl)cc1OCC(=O)O (configuration not stated) |  | inactive: 12.5%
Cc1c(Cl)cccc1-n1ncc(C(=O)N2CCc3ccccc3C2)c1C1CCN(C(=O)OC(C)(C)C)CC1 | inconclusive [inhibitor, single point] | 
CCN(CC)c1ccc(-c2nn3c(-c4n[nH]c5c4CCC5)nnc3s2)cc1 | active: 0.92 µM | 
COc1ccc(CN(C)C[C@H]2OCCCC[C@H](C)Oc3ccc(NC(=O)CCC(F)(F)F)cc3C(=O)N([C@@H](C)CO)C[C@@H]2C)cc1 | inconclusive [inhibitor, single point] | 
Nc1c(C(=O)N2CCCCC2)sc(=S)n1-c1ccccc1 | active: 20.6 µM | 
COc1ccc(OCC(=O)Nc2ccc(C(=O)OCc3cc(=O)n4nc(C)sc4n3)cc2)cc1 | active: 13 µM | 
CCCCCC(=O)O[C@]1(C(C)=O)CC[C@H]2[C@@H]3CCC4=CC(=O)CC[C@]4(C)[C@H]3CC[C@@]21C | active: 25.9 µM | 
O=C(NCc1ccc(F)cc1)C1CCCN(S(=O)(=O)c2ccc(Br)s2)C1 (configuration not stated) |  | inconclusive: -35.4% [inhibitor]

SMILES | Potency | activity change, negative = growth inhibition
O=S(=O)(c1ccc(C2CCCCC2)cc1)N1CCOCC1 | inconclusive [inhibitor, single point] | 
COc1cccc(-c2nc(NCc3ccccc3)c3ccccc3n2)c1O | inconclusive [inhibitor, single point] | 
O=C(Nc1nc2ccccc2s1)C1c2ccccc2Oc2ccccc21 | active: 5.8 µM | 
Oc1cc2c(cc1O)CN(C(=S)NCCc1ccc(Cl)cc1)CCC2 | active: 13.3 µM and active: 7.08 µM | 
CCCN(CC(=O)Nc1ccccc1C)C(=O)COc1c(Cl)cccc1Cl |  | inactive: -15%
Cc1ccc(Cn2nc(C)c(NC(=O)c3cc(-c4ccc5c(c4)OCO5)on3)c2C)cc1 | active: 16.4 µM | 
COc1ccc(Oc2cc(F)nc(N)n2)cc1 |  | inconclusive: -35.3% [inhibitor]
CC(=O)Oc1ccc(N(C(C)=O)S(=O)(=O)c2ccc(C)cc2C)c2ccccc12 | active: 23.1 µM | 
COCCn1c(=O)cnc2cnc(Oc3ccccc3)nc21 | inconclusive [inhibitor, partial curve, poor fit] | 
CC(C)N(Cc1nc(-c2ccc(Cl)cc2)no1)Cc1nccn1C | inconclusive [inhibitor, single point] | 
COc1cc(/C=N/NC(N)=S)ccc1OCC(=O)N1CCOCC1 |  | inactive: 5.8%
CC(OC(=O)c1ccc(NS(=O)(=O)c2cccs2)cc1)C(=O)N(C)C1CCCCC1 (configuration not stated) |  | inactive: 1.16%
CCc1ccc(NC(=O)CC2C(=O)N(c3cccc(OC)c3)C(=O)N2Cc2ccco2)cc1 (configuration not stated) | inconclusive [inhibitor, single point] | 
CCCCNCCCOc1cc(Cl)ccc1Cl | inconclusive [inhibitor, single point] | 
C=C(Cl)COc1ccc2c(CCCC)cc(=O)oc2c1 | inconclusive [inhibitor, single point] | 
Clc1ccc(-c2nc3cc(CN4CCCCC4)ccc3o2)cc1 | inconclusive [inhibitor, single point] | 
O=C(/C=C/c1ccc2c(c1)OCO2)c1cccs1 | active: 3.35 µM | 
CCN(CC)c1ccc(C(=O)OCC(=O)NC(C)(C)C)cc1 | inconclusive [inhibitor, single point] | 
Cc1ccc(NC(=O)c2oc3ccccc3c2NC(=O)Cc2cccs2)cc1 |  | inactive: -14.1%
COc1ccc2c(c1)cc1c(=O)n(CC(=O)NC3CCCCC3)nc(C)n12 |  | inactive: 7.62%
Cc1ccnc2nc(C(=O)OCCOc3ccc(F)cc3)nn12 |  | inactive: 0.736%
COc1ccc(N2CCN(C(=O)c3ccc(S(=O)(=O)N4CCOCC4)cc3)CC2)cc1 | inconclusive [inhibitor, partial curve] | 
COc1ccccc1Nc1cc2cc(Br)ccc2c(=O)[nH]1 | active: 2.59 µM | 
COc1cc(Cl)c(NS(=O)(=O)c2ccc3c(c2)CC(C)N3C(=O)C2CCC2)c(OC)c1 (configuration not stated) | active: 6.51 µM | 

SMILES | Potency | activity change, negative = growth inhibition
COc1ccc(N(Cc2cc3ccccc3[nH]c2=O)S(=O)(=O)c2ccccc2)cc1 | inconclusive [inhibitor, single point] | 
Cc1cccc(COc2ccc(/C=C3/C(=O)N(C)C(=S)N3C)cc2)c1 | inconclusive [inhibitor, single point] | 
CN(CCC#N)C(=O)c1cc2c(Cl)nc3ccccc3c2s1 |  | inactive: -2.02%
COc1cccc(C2NC(c3cccc(OC)c3O)C(C)C(=O)C2C)c1O (configuration not stated) | inconclusive [inhibitor, single point] | 
CC1(C(=O)NS(=O)(=O)Cc2ccccc2C(F)(F)F)CCN1C(=O)Cc1ccsc1 (configuration not stated) | inconclusive [inhibitor, single point] | 
CCc1ccc(NC(=S)N2CCC(NC(=O)C3CCCCC3)CC2)cc1 |  | inactive: 4.01%
COc1ccccc1NC(=O)N(C)C[C@H]1Oc2cc(Br)ccc2S(=O)(=O)N([C@H](C)CO)C[C@H]1C | inconclusive [inhibitor, single point] | 
OCCN1CCN(c2nc(-c3ccccc3)c3cc(Cl)ccc3n2)CC1 | inconclusive [inhibitor, single point] | 
O=C(NCc1ccc(F)cc1)C(=O)Nc1nc(C23CC4CC(CC(C4)C2)C3)cs1 | inconclusive [inhibitor, single point] | 
COc1cc(C#Cc2c(-c3cncn3C)n(C)c3ccc(-c4ccc5[nH]ccc5c4)cc23)cc(OC)c1 | inconclusive [inhibitor, single point] | 
CCc1c(C)sc2c1CCN(C(=O)Nc1ccccc1C(F)(F)F)C2c1ccccc1 (configuration not stated) | inconclusive [inhibitor, single point] | 
Cc1ccc(N/N=C2\CS(=O)(=O)N(C)c3ccsc32)cc1 | inconclusive [inhibitor, single point] | 
COc1cc(OC)c(S(=O)(=O)N2CCOCC2)cc1S(=O)(=O)N1CCOCC1 |  | inactive: 10.5%
O=C(c1ccc(S(=O)(=O)N2CCC(c3nc4ccccc4s3)CC2)cc1)N1CCCCC1 |  | inactive: -14.4%
Cc1cccc(Nc2nc(N)c([N+](=O)[O-])c(NCc3ccco3)n2)c1 |  | inactive: -9.07%
COC(=O)/C=C/c1ccccc1S(=O)(=O)NC(C)C | inconclusive [inhibitor, single point] | 
CCN(Cc1ccncc1)C(=O)CCc1ccccc1 |  | inactive: -6.1%
CN(CC(=O)NC1CCCc2ccccc21)S(=O)(=O)c1cccs1 (configuration not stated) | inconclusive [inhibitor, single point] | 
COc1ccc(C(=O)CSc2nc(C)cc(=O)[nH]2)cc1C | inconclusive [inhibitor, single point] | 
CSCCC1NC(=O)N(CC(=O)N2CCc3ccccc3C2)C1=O (configuration not stated) |  | inactive: -8.57%
CCOC(=O)NC1CCc2cc(OC)c(OC)c(OC)c2-c2ccc(SC)c(=O)cc21 (configuration not stated) | active: 0.0103 µM | 
Cc1ccc(-c2n[nH]c(=S)n2/N=C/c2ccc(C)o2)cc1 | inconclusive [inhibitor, single point] | 
CCn1c(C(=O)N2CCCC(C(=O)NCCCOC)C2)cc2sccc21 (configuration not stated) | inconclusive [inhibitor, single point] | 
Cc1cccc(NC(=O)C2(C)CC3c4ccccc4C2c2ccccc23)c1C (configuration not stated) | inconclusive [inhibitor, single point] | 

— PubChem BioAssay AID686979 (National Center for Advancing Translational Sciences (NCATS), 2013)
